# Assay results: PubChem BioAssay AID624418 (National Center for Advancing Translational Sciences (NCATS), 2012)
# In all, about 410,000 compounds went through this assay and about 530 (0.13%) were called active. This list was built around the results that the source calls inconclusive (neither active nor inactive); the mix of calls is not that of the screen. The call rests on the fitted dose curve; in most records, active means well fitted inhibition curve with a large enough effect; inconclusive means small, poorly fitted or top-dose-only effect, or another doubt; inactive means no such curve, though single readings can be large or run the other way. Where the call is inconclusive, the potency comes from a doubtful curve fit.
# Assay: qHTS of GLP-1 Receptor Inverse Agonists: Cytotox Screen
# Conditions: HEK293 cAMP-luciferase reporter cells, luminescence, 24 h; activity change, negative = inhibition: at 38.3 µM (top of the series) unless noted
# Procedure, shortened: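 MLSMR compounds, 24 hr on cells at 37 deg C/5% CO2; luminescence after luciferase reagent (12 min RT). Inhibition counted as the undesired cytotoxic outcome.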
# On the % scale 0 is the no-effect control and ±100 the full control effect; potency means the concentration at half of the fitted maximal effect.
Structure (SMILES),Potency,"activity change, negative = inhibition"
O=C(NCc1ccc(F)cc1)C1CCCN(C(=O)Nc2ccc(F)cc2)C1 (stereo not drawn),"inconclusive: 28.2 µM [inhibitor, single point]",
CCC(CO)Oc1cc(NCc2ccc(Cl)cc2Cl)c2ncn(C(C)C)c2c1 (stereo not drawn),"inconclusive: 2 µM [inhibitor, full curve, poor fit]",
COc1ccc(-c2coc3cc4oc(=O)c5ccccc5c4cc23)cc1F,"inconclusive: 1 µM [inhibitor, full curve, poor fit]",
COc1cccc(CN2CCC2(C)C(=O)NCc2cccc(C(F)(F)F)c2)c1OC (stereo not drawn),,inactive: 0.347%
CN(C(=O)CCNC(=O)Cn1cnc2ccccc2c1=O)c1ccc(Br)cc1,,inactive: 11.3%
C=CCc1c(C)nc(C)nc1N/N=C/c1ccccc1O,"inconclusive: 31.6 µM [inhibitor, single point]",
CC(=O)Nc1ccc(-c2ccnc3c2CC(C(=O)NCc2cccc(Cl)c2)O3)cc1 (stereo not drawn),"inconclusive: 6.31 µM [inhibitor, partial curve, poor fit]",
CN(CC1CCCN(CCc2cccc(C(F)(F)F)c2)C1)C(=O)c1cc2ccccc2o1 (stereo not drawn),"inconclusive: 22.4 µM [inhibitor, single point]",
CCc1ccccc1NC(=S)N=Nc1c(O)n(C)c2ccc(S(=O)(=O)N3CCOCC3)cc12,"inconclusive: 3.16 µM [inhibitor, partial curve, poor fit]",
CCn1c(CSCc2ccc(Cl)cc2)n[nH]c1=S,"inconclusive: 7.94 µM [inhibitor, partial curve, poor fit]",
CC(C)(C)c1cc(C(=O)N/N=C/c2cc3c(cc2Br)OCO3)n[nH]1,,inactive: -12.8%
O=C(/C=C/c1ccncc1)c1ccc(NC(=O)c2ccccc2F)cc1,"inconclusive: 12.6 µM [inhibitor, single point]",
CC(=O)Nc1nc2ccccc2n1CCOc1ccccc1Cl,"inconclusive: 28.2 µM [inhibitor, single point]",
CN(C)CCNC(=O)C(=O)Nc1ccc2c(c1)N(S(=O)(=O)c1cccs1)CCC2,active: 4.47 µM,
COC(=O)c1cc(OC)c(OC)cc1NC(=O)CCC1CCCC1,,inactive: 9.47%
CCn1c2ccccc2c2cc(C3C(C#N)=C(C)NC(C)=C3C#N)ccc21,,inactive: -9.73%
O=C(COc1ccc(Br)cc1Cl)NC1CCN(Cc2ccccc2)CC1,"inconclusive: 11.2 µM [inhibitor, partial curve, poor fit]",
COc1ccccc1C(=O)NCC(=O)NC(C)CCc1ccccc1 (stereo not drawn),,inactive: -0.34%
CCN(CC)S(=O)(=O)c1ccc(N/N=C(\C)c2ccc(OC)cc2O)nc1,"inconclusive: 1.26 µM [inhibitor, full curve, poor fit]",
CCC1CCCCN1CCCNC(=O)c1ccc2c(c1)N(Cc1cccc(Cl)c1)C(=O)c1ccccc1S2(=O)=O (stereo not drawn),"inconclusive: 22.4 µM [inhibitor, single point]",
Cn1c(=O)c2c(nc(Oc3ccccc3)n2Cc2c(Cl)cccc2Cl)n(C)c1=O,,inactive: -17.7%
Cc1ccc2c(c1)c1c3n2CCN(C(=O)CCl)C3CCC1 (stereo not drawn),,inactive: 8.44%

Structure (SMILES),Potency,"activity change, negative = inhibition"
O=C(Nc1ccc(F)cc1F)c1ccc2c(O)c(S(=O)(=O)c3ccc(Cl)cc3)c(=O)[nH]c2c1,,inactive: 8.44%
CSC1=C(C#N)C(c2ccc(C)s2)CC(=O)N1 (stereo not drawn),,inactive: -8.16%
CC(C)C(=O)OC/C(O)=C(\C#N)c1nc2ccccc2[nH]1,"inconclusive: 11.2 µM [inhibitor, single point]",
Cc1ccc(S(=O)(=O)N(C)C)cc1NC(=S)NCCCn1ccnc1,"inconclusive: 0.251 µM [inhibitor, full curve, poor fit]",
CCc1ccc(C2c3c(oc4ccc(F)cc4c3=O)C(=O)N2c2nc(C)c(C(=O)OC)s2)cc1 (stereo not drawn),,inactive: 5.34%
O=C(CSc1nnc(CNC(=O)c2ccccc2)o1)NCCc1ccccc1,,inactive: -0.0069%
CCN(c1ccccc1)S(=O)(=O)c1ccc(C(=O)N(CCCN(C)C)c2nc3cc4c(cc3s2)OCO4)cc1,"inconclusive: 28.2 µM [inhibitor, single point]",
Fc1ccccc1CNC(=S)NCc1ccc(Cl)cc1,"inconclusive: 28.2 µM [inhibitor, single point]",
O=C(CCS(=O)(=O)c1ccccc1)Nc1ncc([N+](=O)[O-])s1,"inconclusive: 14.1 µM [inhibitor, single point]",
CC(=O)Oc1ccc(-c2cccc(C(=O)OCC(=O)N(C)c3ccccc3)c2)cc1,"inconclusive: 11.2 µM [inhibitor, single point]",
O=C(CSc1cn(CC(=O)N2CCOCC2)c2ccccc12)Nc1ccccc1,,inactive: 1.07%
CCCOc1ccc(F)cc1-c1cc(C(=O)NCc2cccs2)[nH]n1,"inconclusive: 12.6 µM [inhibitor, single point]",
CCCCCOC(=O)C1=C(C)Nc2nnnn2C1c1ccccc1Cl (stereo not drawn),,inactive: -29.3%
CC(C)(C)OC(=O)NCCCCCc1cn([C@@H](CO)C(=O)NCCCCCCCCCCC(=O)N2CCN(C(=O)OC(C)(C)C)CC2)nn1,"inconclusive: 22.4 µM [inhibitor, single point]",
CC(=O)Nc1ccc(NC(=O)COC(=O)c2c3c(nc4ccccc24)CCN(Cc2ccccc2)C3)cc1,"inconclusive: 7.08 µM [inhibitor, partial curve, poor fit]",
Cc1ccc(C)c2[nH]c(=O)c(C(c3nnnn3CCc3ccccc3)N3CCOCC3)cc12 (stereo not drawn),,inactive: 0.0492%
Cc1ccc2nc(C)c(C(=O)NN=C3CCN(C)CC3)n2c1,"inconclusive: 10 µM [inhibitor, partial curve, poor fit]",
O=C(NCc1cccnc1)/C(=C\c1ccc(-c2cccc(Cl)c2)o1)S(=O)(=O)c1ccccc1,"inconclusive: 15.8 µM [inhibitor, single point]",
O=C(c1cc(-c2cccs2)nc2ccccc12)N1CCN(S(=O)(=O)c2ccccc2)CC1,,inactive: 0.337%
CCCN(CCC)S(=O)(=O)c1ccc(C(=O)Nc2nnc(COC)o2)cc1,"inconclusive: 28.2 µM [inhibitor, single point]",
CCCCCCCCC(=O)N/N=C/c1ccccn1,"inconclusive: 28.2 µM [inhibitor, single point]",
